# This is one part of the list.
# B1: PhoQ; a variant is named by its letters at X, in order, P23837 (parent)
# chain: MKKLLRLFFPLSLRVRFLLATAAVVLVLSLAYGMVALIGYSVSFDKTTFRLLRGESNLFYTLAKWENNKLHVELPENIDKQSPTMTLIYDENGQLLWAQRDVPWLMKMIQPDWLKSNGFHEIEADVNDTSLLLSGDHSIQQQLQEVREDDDDAEMTHSVAVNVYPATSRMPKLTIVVVDTIPVELKSSYMVWSWFIYVLSANLLLVIPLLWVAAWWSLRPIEALAKEVRELEEHNRELLNPATTRELTSLVRNLNRLLKSERERYDKYRTTLTDLTHSLKTPLXXLQXXLRSLRSEKMSVSDAEPVMLEQISRISQQIGYYLHRASMRGGTLLSRELHPVAPLLDNLTSALNKVYQRKGVNISLDISPEISFVGEQNDFVEVMGNVLDNACKYCLEFVEISARQTDEHLYIVVEDDGPGIPLSKREVIFDRGQRVDTLRPGQGVGLAVAREITEQYEGKIVAGESMLGGARMEVIFGRQHSAPKDE
# Variants of: B1
# Assay: enrichment ratio after two sorts for PhoP signalling (ratio (wild type AVST 3.29)); higher = more functional
# Details: with PhoP (E. coli)
row,Variant,enrichment ratio
1,TDTI,14.6
2,AKAC,19.7
3,SGMY,11.1
4,YWIT,≤ 0.25
5,YPSY,≤ 0.25
6,MRKE,≤ 0.25
7,VWHY,≤ 0.25
8,GMTT,≤ 0.25
9,DKVL,≤ 0.25
10,PWIF,≤ 0.25
11,EHIP,≤ 0.25
12,FITI,≤ 0.25
13,SPYT,≤ 0.25
14,QTFI,≤ 0.25
15,EEPA,≤ 0.25
16,ADLW,≤ 0.25
17,LQGS,≤ 0.25
18,DRQQ,≤ 0.25
19,QGTG,≤ 0.25
20,GIYK,≤ 0.25
21,LCQM,≤ 0.25
22,KASS,1.62
23,VYLK,≤ 0.25
24,GIWF,≤ 0.25

row,Variant,enrichment ratio
1,SNKV,≤ 0.25
2,TQKS,≤ 0.25
3,VDFI,≤ 0.25
4,RQAD,≤ 0.25
5,PVDD,≤ 0.25
6,FEWS,≤ 0.25
7,VQSE,≤ 0.25
8,TGQH,4.83
9,DAKT,≤ 0.25
10,QSTL,≤ 0.25
11,MAWF,3.66
12,GSEA,≤ 0.25
13,QKKN,≤ 0.25
14,RVSC,≤ 0.25
15,TLTL,14.1
16,RIMQ,≤ 0.25
17,IVSE,≤ 0.25
18,IQEH,≤ 0.25
19,WCTK,≤ 0.25
20,RDVG,≤ 0.25
21,AGAL,8.05
22,ARWG,≤ 0.25
23,FGTG,≤ 0.25
24,QMGL,2.02

row,Variant,enrichment ratio
1,AMRL,≤ 0.25
2,ECPV,≤ 0.25
3,AICH,15.1
4,LMWT,≤ 0.25
5,EGDP,≤ 0.25
6,EVPS,≤ 0.25
7,FLVP,≤ 0.25
8,LFPM,≤ 0.25
9,LDCF,≤ 0.25
10,FEQD,≤ 0.25
11,ANAR,≤ 0.25
12,SMGT,≤ 0.25
13,DGMI,≤ 0.25
14,LPGM,≤ 0.25
15,LESY,≤ 0.25
16,ELAL,≤ 0.25
17,IQRV,≤ 0.25
18,PVKE,≤ 0.25
19,HEVP,≤ 0.25
20,RWQL,≤ 0.25
21,LYVV,≤ 0.25
22,AEWC,≤ 0.25
23,MLPC,≤ 0.25
24,FNPS,≤ 0.25

row,Variant,enrichment ratio
1,MKDV,≤ 0.25
2,NFCK,≤ 0.25
3,NGES,≤ 0.25
4,FFGA,≤ 0.25
5,LQKC,≤ 0.25
6,DHTY,≤ 0.25
7,PKNH,≤ 0.25
8,ESYH,≤ 0.25
9,FSHN,≤ 0.25
10,MLYC,≤ 0.25
11,DYET,≤ 0.25
12,IWPI,≤ 0.25
13,ACVM,12.1
14,RDWE,≤ 0.25
15,RDQI,≤ 0.25
16,MRCL,≤ 0.25
17,DIEP,≤ 0.25
18,WKTK,≤ 0.25
19,YEAK,0.57
20,IYFV,≤ 0.25
21,CIHY,≤ 0.25
22,YIIT,≤ 0.25
23,AIAH,5.6
24,DPVG,≤ 0.25

row,Variant,enrichment ratio
1,ACRC,≤ 0.25
2,NSCY,≤ 0.25
3,QFVT,≤ 0.25
4,NYHY,≤ 0.25
5,HARW,≤ 0.25
6,NFYC,≤ 0.25
7,SRIM,13.7
8,YWIA,≤ 0.25
9,IQVR,≤ 0.25
10,APMN,≤ 0.25
11,SYPE,≤ 0.25
12,NRAM,≤ 0.25
13,QNYH,≤ 0.25
14,MYSL,≤ 0.25
15,AYDP,≤ 0.25
16,FFEQ,≤ 0.25
17,VWSR,≤ 0.25
18,LGMS,≤ 0.25
19,MSSR,≤ 0.25
20,FYYI,≤ 0.25
21,MRAW,≤ 0.25
22,VDNC,≤ 0.25
23,WQML,≤ 0.25
24,GKYY,≤ 0.25

row,Variant,enrichment ratio
1,YTTC,≤ 0.25
2,DRPC,≤ 0.25
3,RIAH,≤ 0.25
4,YGTP,0.428
5,YPKV,≤ 0.25
6,VKPQ,≤ 0.25
7,DDDP,≤ 0.25
8,WPRG,≤ 0.25
9,RAES,≤ 0.25
10,SVQH,4.82
11,LKQH,≤ 0.25
12,FSRG,≤ 0.25
13,WRDR,≤ 0.25
14,EYQA,≤ 0.25
15,PCPS,≤ 0.25
16,IVAD,≤ 0.25
17,KICC,≤ 0.25
18,LDPM,≤ 0.25
19,EING,≤ 0.25
20,LVNF,≤ 0.25
21,WSRC,≤ 0.25
22,RLGE,≤ 0.25
23,ARCL,4.81
24,HNDL,≤ 0.25

row,Variant,enrichment ratio
1,MMPP,≤ 0.25
2,LYES,≤ 0.25
3,GTII,13.8
4,TLGH,12.5
5,DGEL,≤ 0.25
6,MAMH,≤ 0.25
7,VFNS,≤ 0.25
8,LDAP,≤ 0.25
9,ADFD,≤ 0.25
10,REEV,≤ 0.25
11,LPKD,≤ 0.25
12,KYRE,≤ 0.25
13,VCGN,≤ 0.25
14,SSKD,≤ 0.25
15,TGMK,≤ 0.25
16,NHMK,≤ 0.25
17,RQAL,≤ 0.25
18,KQWI,≤ 0.25
19,ENPQ,≤ 0.25
20,QDEV,≤ 0.25
21,GMRT,≤ 0.25
22,RPQS,≤ 0.25
23,RLVG,≤ 0.25
24,LGFT,≤ 0.25

row,Variant,enrichment ratio
1,WKRI,≤ 0.25
2,IECH,≤ 0.25
3,KFQH,1.05
4,FNEC,≤ 0.25
5,YWLK,≤ 0.25
6,AYVK,≤ 0.25
7,KKYY,≤ 0.25
8,RGDP,≤ 0.25
9,DTIV,≤ 0.25
10,TLCT,2.28
11,WFAN,≤ 0.25
12,WSTW,≤ 0.25
13,DCAE,≤ 0.25
14,PPWH,≤ 0.25
15,YVFL,≤ 0.25
16,VYMV,≤ 0.25
17,MEHA,≤ 0.25
18,VWWS,≤ 0.25
19,NQTT,≤ 0.25
20,YGFG,≤ 0.25
21,AKAN,≤ 0.25
22,QQDM,≤ 0.25
23,NWPI,≤ 0.25
24,SPML,≤ 0.25

row,Variant,enrichment ratio
1,LRAP,≤ 0.25
2,YARK,≤ 0.25
3,PWWC,≤ 0.25
4,WPGQ,≤ 0.25
5,NNPP,≤ 0.25
6,YLWG,≤ 0.25
7,VDWV,≤ 0.25
8,SWND,≤ 0.25
9,WKDK,≤ 0.25
10,HKGW,≤ 0.25
11,RSTD,≤ 0.25
12,ICPV,≤ 0.25
13,QLSH,0.719
14,NGYA,≤ 0.25
15,GPDN,≤ 0.25
16,GRQA,≤ 0.25
17,YRWV,≤ 0.25
18,IPIF,≤ 0.25
19,GTYN,≤ 0.25
20,TFMM,≤ 0.25
21,EDHR,≤ 0.25
22,WDKH,≤ 0.25
23,MLNL,≤ 0.25
24,LIYE,≤ 0.25

row,Variant,enrichment ratio
1,VKQW,≤ 0.25
2,YHNC,≤ 0.25
3,FIWY,≤ 0.25
4,NSQH,≤ 0.25
5,SPLY,≤ 0.25
6,LKWW,≤ 0.25
7,VEPF,≤ 0.25
8,CSLV,≤ 0.25
9,DMPY,≤ 0.25
10,VGYK,≤ 0.25
11,LPIG,≤ 0.25
12,GFSA,≤ 0.25
13,SWLT,≤ 0.25
14,NGYL,≤ 0.25
15,TKCS,13.2
16,LGET,≤ 0.25
17,MCGN,16.3
18,WKAN,≤ 0.25
19,NSNV,≤ 0.25
20,TWKH,≤ 0.25
21,FAWK,≤ 0.25
22,MHTA,≤ 0.25
23,PEVP,≤ 0.25
24,RIKM,1.57

row,Variant,enrichment ratio
1,LCAP,≤ 0.25
2,ASVL,16.7
3,GCTM,1.21
4,LMVY,≤ 0.25
5,ISCR,≤ 0.25
6,YKGM,≤ 0.25
7,DQRV,≤ 0.25
8,GGVA,≤ 0.25
9,EVTY,≤ 0.25
10,ARRV,≤ 0.25
11,CGSN,≤ 0.25
12,RLIF,≤ 0.25
13,KIRT,≤ 0.25
14,CQFF,≤ 0.25
15,WQII,≤ 0.25
16,YWLG,≤ 0.25
17,GDTE,≤ 0.25
18,GQVV,≤ 0.25
19,TSSY,14.6
20,PCDG,≤ 0.25
21,WYPM,≤ 0.25
22,MYFV,≤ 0.25
23,VEMT,≤ 0.25
24,NKAN,≤ 0.25

row,Variant,enrichment ratio
1,RVEW,≤ 0.25
2,TCQY,31.4
3,TTRY,≤ 0.25
4,LIED,≤ 0.25
5,FLDR,≤ 0.25
6,GFWS,≤ 0.25
7,NFQP,≤ 0.25
8,RHWA,≤ 0.25
9,DWYF,≤ 0.25
10,LMFV,≤ 0.25
11,IQFK,≤ 0.25
12,SLRT,≤ 0.25
13,HWFT,≤ 0.25
14,LNDQ,≤ 0.25
15,PKWD,≤ 0.25
16,GDFH,≤ 0.25
17,WPPK,≤ 0.25
18,NWSI,≤ 0.25
19,NCTY,≤ 0.25
20,DTDQ,≤ 0.25
21,LDTM,≤ 0.25
22,WRGY,≤ 0.25
23,GGGS,≤ 0.25
24,QRYI,≤ 0.25

row,Variant,enrichment ratio
1,NMEP,≤ 0.25
2,ATSH,10.6
3,MVGP,≤ 0.25
4,GCCM,≤ 0.25
5,LQKE,≤ 0.25
6,ELPN,≤ 0.25
7,GVPV,≤ 0.25
8,YSQH,≤ 0.25
9,AKTH,4.03
10,QMAR,≤ 0.25
11,RSQA,≤ 0.25
12,NDYA,≤ 0.25
13,IYLI,≤ 0.25
14,QRQD,≤ 0.25
15,KCQD,≤ 0.25
16,NFTR,≤ 0.25
17,YKMW,≤ 0.25
18,IFRN,≤ 0.25
